# Experimental data as given in the supplement of paper PMC8728848.
# This is one part of the list.
# B1: Gal 3 (Homo sapiens), P17931 (protein)
# chain: MADNFSLHDALSGSGNPNPQGWPGAWGNQPAGAGGYPGASYPGAYPGQAPPGAYPGQAPPGAYHGAPGAYPGAPAPGVYPGPPSGPGAYPSSGQPSAPGAYPATGPYGAPAGPLIVPYNLPLPGGVVPRMLITILGTVKPNANILDFQRGNDVAFHFNPRFNENNRRVIVCNTKLDNNWGREEIQSVFPFESGKPFKIQVLVEPDHFKVAVNDAHLLQYNHRVKKLNEISKLGISGDIDLTSASYTMI
# What was measured:
# Assay in all cases: glycan array binding signal (z-score within array); higher = stronger binding
# Conditions in all cases: glycan notation: IUPAC condensed, linker removed; mutation: R186I
# [1] = target: GalNAc(b1-3)Gal(a1-4)Gal(b1-4)GlcNAc
# Procedure, shortened: (§1)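 The binding signal is a Z-score computed within each array. Data were drawn from 3228 arrays in the Consortium for Functional Glycomics database, restricted to those with a known protein sequence. Scores were averaged over arrays of the same protein sequence at different concentrations or buffers, and over linkers, and negative values can be taken as non-binding.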
# [2] = target: GalNAc(b1-3)Gal(a1-4)Gal(b1-4)GlcNAc(b1-3)Gal(b1-4)Glc
# Procedure, shortened: as §1
# [3] = target: GalNAc(b1-3)Gal(a1-6)Gal(b1-4)Glc
# Procedure, shortened: as §1
# GalNAc(b1-3)GalNAc = target: GalNAc(b1-3)GalNAc
# Procedure, shortened: as §1
# GalNAc(b1-4)GlcNAc = target: GalNAc(b1-4)GlcNAc
# Procedure, shortened: as §1
# [4] = target: GalNAc(b1-4)GlcNAc(b1-2)Man(a1-3)[GalNAc(b1-4)GlcNAc(b1-2)Man(a1-6)]Man(b1-4)GlcNAc(b1-4)GlcNAc
# Procedure, shortened: as §1
# Glc(a1-4)Glc = target: Glc(a1-4)Glc
# Procedure, shortened: as §1
# Glc(a1-6)Glc(a1-6)Glc = target: Glc(a1-6)Glc(a1-6)Glc
# Procedure, shortened: as §1
# Glc(b1-4)Glc = target: Glc(b1-4)Glc
# Procedure, shortened: as §1
# Glc(b1-6)Glc = target: Glc(b1-6)Glc
# Procedure, shortened: as §1
# GlcA(b1-3)Gal = target: GlcA(b1-3)Gal
# Procedure, shortened: as §1
# GlcA(b1-3)GlcNAc = target: GlcA(b1-3)GlcNAc
# Procedure, shortened: as §1
# GlcA(b1-6)Gal = target: GlcA(b1-6)Gal
# Procedure, shortened: as §1
# [5] = target: GlcNAc(a1-3)Gal(b1-4)GlcNAc
# Procedure, shortened: as §1
# [6] = target: GlcNAc(a1-4)Gal(b1-3)GlcNAc
# Procedure, shortened: as §1
# [7] = target: GlcNAc(a1-4)Gal(b1-4)GalNAc
# Procedure, shortened: as §1
# [8] = target: GlcNAc(a1-4)Gal(b1-4)GlcNAc
# Procedure, shortened: as §1
# [9] = target: GlcNAc(a1-4)Gal(b1-4)GlcNAc(b1-3)Gal(b1-4)Glc
# Procedure, shortened: as §1
# [10] = target: GlcNAc(a1-4)Gal(b1-4)GlcNAc(b1-3)Gal(b1-4)GlcNAc
# Procedure, shortened: as §1
# [11] = target: GlcNAc(a1-4)Gal(b1-4)GlcNAc(b1-3)Gal(b1-4)GlcNAc(b1-3)Gal(b1-4)GlcNAc
# Procedure, shortened: as §1
# [12] = target: GlcNAc(a1-4)Gal(b1-4)GlcNAc(b1-3)Gal(b1-4)[Fuc(a1-3)]GlcNAc(b1-3)Gal(b1-4)[Fuc(a1-3)]GlcNAc
# Procedure, shortened: as §1
# [13] = target: GlcNAc(a1-6)Gal(b1-4)GlcNAc
# Procedure, shortened: as §1
# [14] = target: GlcNAc(b1-2)Gal(b1-3)GalNAc
# Procedure, shortened: as §1
# [15] = target: GlcNAc(b1-2)Man(a1-3)[GlcNAc(b1-2)Man(a1-6)]Man(b1-4)GlcNAc(b1-4)GlcNAc
# Procedure, shortened: as §1
# [16] = target: GlcNAc(b1-2)Man(a1-3)[GlcNAc(b1-2)Man(a1-6)]Man(b1-4)GlcNAc(b1-4)[Fuc(a1-6)]GlcNAc
# Procedure, shortened: as §1
# [17] = target: GlcNAc(b1-2)[GlcNAc(b1-4)]Man(a1-3)[GlcNAc(b1-2)Man(a1-6)]Man(b1-4)GlcNAc(b1-4)GlcNAc
# Procedure, shortened: as §1
# GlcNAc(b1-3)Gal = target: GlcNAc(b1-3)Gal
# Procedure, shortened: as §1
# [18] = target: GlcNAc(b1-3)Gal(b1-3)GalNAc
# Procedure, shortened: as §1
# GlcNAc(b1-3)Gal(b1-4)Glc = target: GlcNAc(b1-3)Gal(b1-4)Glc
# Procedure, shortened: as §1
# [19] = target: GlcNAc(b1-3)Gal(b1-4)GlcNAc
# Procedure, shortened: as §1
# [20] = target: GlcNAc(b1-3)Gal(b1-4)GlcNAc(b1-3)Gal(b1-4)GlcNAc
# Procedure, shortened: as §1
# GlcNAc(b1-3)GalNAc = target: GlcNAc(b1-3)GalNAc
# Procedure, shortened: as §1
# GlcNAc(b1-3)Man = target: GlcNAc(b1-3)Man
# Procedure, shortened: as §1
# [21] = target: GlcNAc(b1-3)[GlcNAc(b1-4)][GlcNAc(b1-6)]GlcNAc
# Procedure, shortened: as §1
# [22] = target: GlcNAc(b1-3)[GlcNAc(b1-6)]Gal(b1-4)GlcNAc
# Procedure, shortened: as §1
# [23] = target: GlcNAc(b1-3)[GlcNAc(b1-6)]GalNAc
# Procedure, shortened: as §1
# [24] = target: GlcNAc(b1-4)Gal(b1-4)GlcNAc
# Procedure, shortened: as §1
binder,measurement,setting,value
B1,glycan array binding signal (z-score),[1],-0.177
same,glycan array binding signal (z-score),[2],2.69
same,glycan array binding signal (z-score),[3],-0.182
same,glycan array binding signal (z-score),GalNAc(b1-3)GalNAc,-0.186
same,glycan array binding signal (z-score),GalNAc(b1-4)GlcNAc,-0.187
same,glycan array binding signal (z-score),[4],-0.114
same,glycan array binding signal (z-score),Glc(a1-4)Glc,-0.196
same,glycan array binding signal (z-score),Glc(a1-6)Glc(a1-6)Glc,-0.021
same,glycan array binding signal (z-score),Glc(b1-4)Glc,-0.191
same,glycan array binding signal (z-score),Glc(b1-6)Glc,0.004
same,glycan array binding signal (z-score),GlcA(b1-3)Gal,-0.11
same,glycan array binding signal (z-score),GlcA(b1-3)GlcNAc,-0.188
same,glycan array binding signal (z-score),GlcA(b1-6)Gal,-0.193
same,glycan array binding signal (z-score),[5],-0.16
same,glycan array binding signal (z-score),[6],-0.145
same,glycan array binding signal (z-score),[7],-0.172
same,glycan array binding signal (z-score),[8],-0.187
same,glycan array binding signal (z-score),[9],-0.163
same,glycan array binding signal (z-score),[10],-0.181
same,glycan array binding signal (z-score),[11],0.461
same,glycan array binding signal (z-score),[12],-0.048
same,glycan array binding signal (z-score),[13],-0.156
same,glycan array binding signal (z-score),[14],-0.091
same,glycan array binding signal (z-score),[15],-0.185
same,glycan array binding signal (z-score),[16],-0.178
same,glycan array binding signal (z-score),[17],-0.096
same,glycan array binding signal (z-score),GlcNAc(b1-3)Gal,-0.191
same,glycan array binding signal (z-score),[18],-0.185
same,glycan array binding signal (z-score),GlcNAc(b1-3)Gal(b1-4)Glc,-0.183
same,glycan array binding signal (z-score),[19],-0.193
same,glycan array binding signal (z-score),[20],-0.193
same,glycan array binding signal (z-score),GlcNAc(b1-3)GalNAc,-0.179
same,glycan array binding signal (z-score),GlcNAc(b1-3)Man,-0.189
same,glycan array binding signal (z-score),[21],-0.187
same,glycan array binding signal (z-score),[22],-0.177
same,glycan array binding signal (z-score),[23],-0.129
same,glycan array binding signal (z-score),[24],-0.131
